# In all, about 360,000 compounds went through this assay and about 7,500 (2.1%) were called active. Inconclusive means that the source gave no clear call. Such entries were picked first, then a sample of the others. Calls follow the shape of the dose curve; as a rule, active = well fitted cell-killing curve with a large enough effect; inconclusive = small, poorly fitted or top-dose-only effect, or effect the other way, or another doubt; inactive = no such curve, though single readings can be large or run the other way. Potencies of inconclusive entries are left out as doubtful fits.
# Test: qHTS for induction of synthetic lethality in tumor cells producing 2HG: qHTS for the HT-1080-IDH1KD cell line;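 as to activity, negative = toxicity: 0% = DMSO wells and -100% = cell-free medium wells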
# Settings: HT-1080 IDH1 knockdown viability, ATP luminescence, 48 h; activity, negative = toxicity: at 46.1 µM (top of the series) unless noted
# In short: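 In this qHTS, HT-1080 cells depleted of IDH1 are exposed for 48 h at 37 °C to compound titrations. Toxicity is scored from CellTiter-Glo luminescence, with DMSO as full viability and medium alone as none.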
# Potency is read from the fitted curve at half-maximal effect; tags tell the direction and shape of the fitted curve.
Compound,Potency,"activity, negative = toxicity"
COc1cc(/C=C2/SC(=NCc3ccccc3)N(Cc3ccccc3)C2=O)ccc1O,"inconclusive [cytotoxic, single point]",
CCc1ccccc1NC(=O)NC1CC2CCC(C1)N2Cc1cccs1 (centres undefined),"inconclusive [cytotoxic, single point]",
Cc1cc(C)c(C)c(S(=O)(=O)NCc2ccncc2)c1C,"inconclusive [cytotoxic, partial curve]",
CCN1CCN(CCNC(=O)CCc2c(C)c3c(C)nn(-c4ccccc4)c3n(C)c2=O)CC1,"inconclusive [cytotoxic, single point]",
C[C@H]1CN([C@@H](C)CO)S(=O)(=O)c2ccc(/C=C/c3ccccc3)cc2O[C@H]1CN(C)C(=O)NC1CCCCC1,"inconclusive [cytotoxic, single point]",
CC(C)C1NC(=S)N(C2CCCCC2)C1=O (centres undefined),,inactive: 14.8%
Cc1cc(C)c2c(=O)c3c(oc2c1)C(=O)N(CCO)C3c1cccc(O)c1 (centres undefined),,inactive: -1.74%
COc1cc2c(c(OC)c1OC)-c1ccc(NC(=O)c3ccc(F)cc3)c(=O)cc1[C@@H](NC(C)=O)CC2,"inconclusive [cytotoxic, single point]",
O=C(Nc1ccc(N2CCCC2)c(Cl)c1)c1ccc(Br)o1,"inconclusive [cytotoxic, single point]",
Cc1cc(C)c2cc(C#N)c(NCCNC(=O)c3ccccn3)nc2c1,"inconclusive [cytotoxic, single point]",
C=CC(=O)NN(C)c1ncc(C(F)(F)F)cc1Cl,"inconclusive [cytotoxic, single point]",
CCS(=O)(=O)c1ccc(O)c(NC(=O)c2cc(-c3ccccn3)nc3ccccc23)c1,,inactive: -0.538%
O=C(NC(c1ccc(F)cc1)c1ccc2ccccc2n1)C1CCN(CCOc2ccc(F)cc2)CC1 (centres undefined),active: 9.2 µM,
C#CCN(C[C@@H]1[C@@H](OC(=O)NCCCCCC)[C@@H](OC(=O)NCCCCCC)Cn2c(=O)ccc(=O)n21)S(=O)(=O)c1ccc(C)cc1,active: 4.11 µM,
O=C(O)c1ccc(N/N=C/c2ccc3c(c2)OCO3)cc1,active: 23.1 µM,
COc1cccc(C(C)(O)c2nc(-c3ccc(F)cc3OC)cs2)c1 (centres undefined),"inconclusive [cytotoxic, single point]",
C/C(=N\NC(=S)NCCc1ccccc1)c1ccc(O)cc1O,"inconclusive [cytotoxic, partial curve]",
COc1ccccc1N(CC(=O)NC1CCCC1)C(=O)c1oc(C(C)(C)C)cc1C,,inactive: -19%
CCc1nc(SCC(=O)c2cc(C)ccc2C)n[nH]1,"inconclusive [cytotoxic, single point]",
O=C(CSc1nnc(-c2ccccc2F)n1C1CC1)NCc1ccco1,,inactive: 9.73%
COc1ccccc1/C=C1\S/C(=N/NC(=O)c2cccc(Br)c2)NC1=O,"inconclusive [cytotoxic, single point]",
COc1ccc(-c2csc(N(CCCN(C)C)C(=O)c3ccc(F)cc3)n2)cc1,"inconclusive [cytotoxic, partial curve, poor fit]",
CC(=O)C1=CCC(c2ccc(Br)cc2)N(S(=O)(=O)c2ccc(C)cc2)C1 (centres undefined),"inconclusive [cytotoxic, partial curve]",

Compound,Potency,"activity, negative = toxicity"
C[C@@H]1CN([C@@H](C)CO)C(=O)CCCn2nncc2CO[C@@H]1CN(C)S(=O)(=O)c1cccs1,,inactive: 6.15%
C=CC[C@@H](CC(=O)N(CCO)Cc1ccccc1)C(=O)N[C@H](COC(=O)[C@@H](CC=C)Cc1ccc(F)cc1)C(C)(C)C,"inconclusive [cytotoxic, single point]",
CC(C)(C)c1ccc(C(=O)CSc2ncn[nH]2)cc1,"inconclusive [cytotoxic, single point]",
CC(=O)CC1(OC(C)=O)C(=O)N(C)c2ccccc21 (centres undefined),"inconclusive [cytotoxic, single point]",
CCCCC[C@@H](C)N1C[C@@H](COCc2ccccc2)Oc2cc(N3CCC[C@H]3CO)ccc2S1(=O)=O,"inconclusive [cytotoxic, single point]",
CCOc1ccc(C(=O)C2CCN(CC(=O)Nc3ccccc3N3CCOCC3)CC2)cc1,"inconclusive [cytotoxic, partial curve, poor fit]",
CCCn1c2ccc(F)cc2c2nnc(SCCN3CCCCC3)nc21,,inactive: -2.29%
COc1ccc(CS(=O)/C(Cl)=C(/Cl)C(=O)Nc2ccc(OC)nc2)cc1 (centres undefined),active: 18.4 µM,
CC1CCc2ccc(F)cc2N1S(=O)(=O)c1cccs1 (centres undefined),,inactive: -25.5%
Cc1c(O)ccc(C(=O)CN2CCN(c3ccccc3F)CC2)c1O,,inactive: -7.51%
CN(C(=O)c1cccc(NC(=O)Cc2cccc(NC(=O)C3CCN(C(=O)C4CCCC4)CC3)c2)c1)C1CCC1,,inactive: 5.13%
N#CCc1c(C#N)c(N)nc(N2CCOCC2)c1C#N,"inconclusive [cytotoxic, single point]",
COC(=O)c1cn[nH]c1NC(=S)Nc1ccc(Cl)c(Cl)c1,"inconclusive [cytotoxic, single point]",
COc1ccc(-c2coc3c(C(=O)NCc4ccco4)cccc23)c(C)c1,"inconclusive [cytotoxic, single point]",
Cc1cc(CN2CCCC(C(=O)Nc3ccc(-c4nc5ccccc5[nH]4)cc3)C2)n[nH]1 (centres undefined),"inconclusive [cytotoxic, single point]",
Cc1cccc(C)c1NC(=O)CN1CCCC1,,inactive: 9.31%
O=C(NC(CSCc1ccccc1)C(=O)N/N=C/c1ccc(O)cc1O)c1ccc([N+](=O)[O-])cc1 (centres undefined),active: 0.891 µM,
COc1ccc(N(C(=O)CNC(=O)c2cccs2)C(C(=O)NC2CCCC2)c2ccncc2)cc1 (centres undefined),,inactive: 4.37%
O=C(COc1ccc2c(c1)C(=O)CC1(CCCCC1)O2)NCc1ccccn1,"inconclusive [cytotoxic, single point]",
CCN(C(=O)c1ccc2c(Cl)c3c(nc2c1)CCC3)c1ccc(C)c(C)c1,"inconclusive [cytotoxic, single point]",
CN1C(=O)C(O)(CC(=O)/C=C\c2ccc3c(c2)OCO3)c2ccccc21 (centres undefined),"inconclusive [cytotoxic, single point]",
Cc1ccc(S(=O)(=O)N(CC2CO2)c2cc(Cl)ccc2Cl)cc1 (centres undefined),active: 23.1 µM,
CC(C)C(N)c1csc(NC(=O)Nc2ccccc2C(C)(C)C)n1 (centres undefined),"inconclusive [cytotoxic, single point]",

Compound,Potency,"activity, negative = toxicity"
CC(=O)/C(=N\Nc1ccccc1Cl)Sc1cccc2cccnc12,"inconclusive [cytotoxic, single point]",
C[C@H](NC(=O)c1nc[nH]c1C(=O)N[C@@H](Cc1ccccc1)C(=O)OC(C)(C)C)c1ccccc1,"inconclusive [cytotoxic, single point]",
Cc1ccccc1NC(=O)Cc1nc(COC(=O)c2ccc(S(C)(=O)=O)c([N+](=O)[O-])c2)cs1,active: 16.4 µM,
CC(=O)Nc1ccc(S(=O)(=O)NC2CCCCCC2)cc1,,inactive: -5.7%
C=CCN1CCN(C(c2cccc(OC)c2OC)c2nnnn2CCC(C)C)CC1 (centres undefined),,inactive: 4.15%
Cc1ccc2ccccc2c1C(O)c1ncc(-c2ccc(Cl)cc2)[nH]1 (centres undefined),"inconclusive [cytotoxic, single point]",
CCCNC(=O)c1cc2c(c(-c3cccc(-c4ccccc4F)c3)n1)[C@@H](CCO)N(C(=O)CC1CC1)C2,"inconclusive [cytotoxic, single point]",
Cn1c2ccccc2c2cc(/C=N/NC(=O)c3ccc(O)cc3O)ccc21,"inconclusive [cytotoxic, single point]",
O=c1[nH]nnc2c1ncn2C1OC(CO)C(O)C1O (centres undefined),,inconclusive: -25% [cytotoxic]
Nc1ccn(C2OC(COC(=O)C34CC5CC(CC(C5)C3)C4)C(O)C2O)c(=O)n1 (centres undefined),,inactive: -18.9%
COc1cccc(OC)c1OCCCCCCN1CCN(C)CC1,,inactive: 5.32%
Brc1ccc(CNc2nc3ccccc3n2CCN2CCCCC2)cc1,"inconclusive [cytotoxic, single point]",
Cc1noc(C(=O)Nc2ccc3c(c2)OCO3)c1Cl,"inconclusive [cytotoxic, single point]",
CCOc1[nH]n(-c2ccc(Cl)cc2)c(=O)c1C=Nc1ccc(OC)cc1,,inactive: 8.37%
CCCOc1ccc(C(=O)NNC(=S)NC(=O)c2cc(-c3ccc(Cl)cc3)nc3ccccc23)cc1,"inconclusive [cytotoxic, full curve, poor fit]",
CC1CCCN(C(=O)CN2CCN(C(=O)c3ccco3)CC2)C1 (centres undefined),,inconclusive: -25.2% [cytotoxic]
CC(/C=N/NC(=O)c1cc(-c2ccc(Cl)cc2)nc2ccccc12)=C\c1ccco1,active: 0.82 µM,
CC(=O)c1cc2c(cc1NC(=O)c1ccc(-n3nc(C)cc3C)cc1)OCO2,,inactive: 22.4%
COc1ccc(Sc2nc(-c3ccccn3)ncc2OC)cc1,"inconclusive [cytotoxic, single point]",
COc1ccc(NC(=O)CCc2nc(-c3ccc(C)cc3)no2)cc1Cl,,inactive: -21.1%
Cc1ccc(CNC(=O)Cc2ccc(-n3c(=O)[nH]c4ccsc4c3=O)cc2)cc1,active: 4.11 µM,
COc1cc2ccccc2cc1C(=O)N/N=C/c1ccc2c(c1)OCO2,"inconclusive [cytotoxic, single point]",
O=C(NC(=S)Nc1ccc(NC(=O)c2cccs2)cc1)c1cc2ccccc2o1,active: 18.4 µM,
